The supplement of paper PMC11741623
Some of the results follow. Interaction screen of human proteins with wild-type SARS-CoV-2 proteins by split-DHFR complementation in yeast, 1 µg/mL methotrexate. Value = fitness of the pair (three or more lineages) minus that of the viral protein without a human partner, on a scale set by negative (0) and fused positive (1) controls, mean of up to three cultures; higher = more likely to interact. Active = false discovery rate below 0.05 (one-sided t-test) in at least one culture. Nearly all pairs are not hits, and differences among them are mostly noise (correlation between cultures about 0.3); most hits were seen in one culture only. Human sequences are the Swiss-Prot entries looked up by gene name; the clone may be another isoform. NSP2 values were corrected by the authors for a growth advantage. Listed are human proteins with a hit and a random twelfth of the others.

B1: UBOX5, O94941 (protein)
chain: MVINLCLPQFRPRIHCNKISADGYEVENLISEDLTKRSHGFRTEYFIKPPVYVTVSFPFNVEICRINIDLTAGGGQNVTGLEMYTSASSSRVSWNTPQCRTLGPAEPSVPDKEAFTLVGKVLLKNQSQVVFSHRGFKARPPFGAMEATLPSPAVVAQELWNKGALSLSHVAHLRICITHVTGGGIPCIKRLEVWGQPAKTCSQEVIDSILLVTSENLPQDVALQAPALPMESDCDPGDQPESQQAPSSLQKLAEIIQDVPEEFLDPITLEIMPCPMLLPSGKVIDQSTLEKCNRSEATWGRVPSDPFTGVAFTPHSQPLPHPSLKARIDHFLLQHSIPGCHLLGRAQTALAVIPSSIVLPSQKRKIEQAEHVPDSNFGVNASCFSATSPLVLPTTSEHTAKKMKATNEPSLTHMDCSTGPLSHEQKLSQSLEIALASTLGSMPSFTARLTRGQLQHLGTRGSNTSWRPGTGSEQPGSILGPECASCKRVFSPYFKKEPVYQLPCGHLLCRPCLGEKQRSLPMTCTACQRPVASQDVLRVHF
B2: PMEPA1, Q969W9 (protein)
chain: MHRLMGVNSTAAAAAGQPNVSCTCNCKRSLFQSMEITELEFVQIIIIVVVMMVMVVVITCLLSHYKLSARSFISRHSQGRRREDALSSEGCLWPSESTVSGNGIPEPQVYAPPRPTDRLAVPPFAQRERFHRFQPTYPYLQHEIDLPPTISLSDGEEPPPYQGPCTLQLRDPEQQLELNRESVRAPPNRTIFDSDLMDSARLGGPCPPSSNSGISATCYGSGGRMEGPPPTYSEVIGHYPGSSFQHQQSSGPPSLLEGTRLHHTHIAPLESAAIWSKEKDKQKGHPL
B3: XKR6, Q5GH73 (protein)
chain: MAAKSDGGGVGVGFAQLHNLDEAVGSGGEEDGEPGGGGCGGGGDGSEPGESSSMHICHCCNTSSCYWGCRSACLRSLLGRKPRRSAAADGGDQPLQPPAAPGAGRQPPTPSAARPEPPPPQVERPWLDCLWIVLALLVFFGDVGTDLWLALDYYRKGDYVYFGLTLFFVLVPSLLVQSLSFRWFVQDYTGGGLGAVEGLTSRGPPMMGAGYVHGAARGGPGVRVSPTPGAQRLCRLSVWIWQSVIHLLQMGQVWRYIRTMYLGIQSQRRKEHQRRFYWAMMYEYADVNMLRLLETFLESAPQLVLQLYIMLQKNSAETLPCVSSVTSLMSLAWVLASYHKLLRDSRDDKKSMSYRGAIIQVFWRLFTISSRVISFALFASIFQLYFGIFVVVHWCAMAFWIIHGGTDFCMSKWEEILFNMVVGIVYIFCWFNVKEGRTRYRMFAYYTIVLTENAALTFLWYFYRDPETTDSYAVPALCCVFISFVAGIAMMLLYYGVLHPTGPRAKILASSCCAELLWGIPLPPDVEPMAPEIPGYRGTQVTPTRAVTEQQEDLTADTCLPVFQVRPMGPPTPLGRPYLPEGPLIKIDMPRKRYPAWDAHFVDRRLRRTINILQYVTPTAVGIRYRDGPLLYELLQYESSL

Biological target: SARS-CoV-2 E
Assay: yeast fitness gain over the viral ORF with no human partner (scaled fitness); higher = more likely to interact
Protocol: (§1)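 Split mouse DHFR complementation in pooled diploid yeast: human ORFeome clones carry one fragment and viral ORFs the other; barcoded lineages compete in 1 µg/mL methotrexate and fitness is read by barcode sequencing in up to three cultures.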

Row | Binder | yeast fitness gain
1 | B1 | inactive: -0.0032
2 | B2 | inactive: 0.0205
3 | B3 | inactive: 0.00922

Biological target: SARS-CoV-2 M
Assay: as above
Protocol: as §1

Row | Binder | yeast fitness gain
4 | B1 | inactive: 0.0553
5 | B2 | inactive: -0.0265
6 | B3 | inactive: -0.0233

Biological target: SARS-CoV-2 N
Assay: as above
Protocol: as §1

Row | Binder | yeast fitness gain
7 | B1 | inactive: -0.0504
8 | B2 | inactive: -0.0509
9 | B3 | inactive: -0.0453

Biological target: SARS-CoV-2 NSP1
Assay: as above
Protocol: as §1

Row | Binder | yeast fitness gain
10 | B1 | inactive: 0.028
11 | B2 | inactive: 0.0394
12 | B3 | inactive: -0.0501

Biological target: SARS-CoV-2 NSP10
Assay: as above
Protocol: as §1

Row | Binder | yeast fitness gain
13 | B1 | inactive: 0.0371
14 | B2 | inactive: -0.0094
15 | B3 | inactive: -0.000613

Biological target: SARS-CoV-2 NSP12
Assay: as above
Protocol: as §1

Row | Binder | yeast fitness gain
16 | B1 | inactive: 0.00996
17 | B2 | inactive: 0.00436
18 | B3 | inactive: 0.0544

Biological target: SARS-CoV-2 NSP13
Assay: as above
Protocol: as §1

Row | Binder | yeast fitness gain
19 | B1 | inactive: -0.0403
20 | B2 | inactive: 0.00905
21 | B3 | inactive: 0.00416

Biological target: SARS-CoV-2 NSP14
Assay: as above
Protocol: as §1

Row | Binder | yeast fitness gain
22 | B1 | inactive: -0.0616
23 | B2 | inactive: -0.453
24 | B3 | inactive: -0.0461

Biological target: SARS-CoV-2 NSP16
Assay: as above
Protocol: as §1

Row | Binder | yeast fitness gain
25 | B1 | inactive: 0.131
26 | B2 | inactive: 0.0408
27 | B3 | inactive: 0.000545

Biological target: SARS-CoV-2 NSP2
Assay: as above
Protocol: as §1

Row | Binder | yeast fitness gain
28 | B1 | inactive: -0.143
29 | B2 | inactive: -0.146
30 | B3 | inactive: -0.147

Biological target: SARS-CoV-2 NSP4
Assay: as above
Protocol: as §1

Row | Binder | yeast fitness gain
31 | B1 | inactive: -0.0988
32 | B2 | inactive: -0.0223
33 | B3 | inactive: -0.0164

Biological target: SARS-CoV-2 NSP5
Assay: as above
Protocol: as §1

Row | Binder | yeast fitness gain
34 | B1 | inactive: -0.0203
35 | B2 | inactive: 0.0623
36 | B3 | inactive: 0.0145

Biological target: SARS-CoV-2 NSP6
Assay: as above
Protocol: as §1

Row | Binder | yeast fitness gain
37 | B1 | inactive: 0.127
38 | B2 | inactive: 0.0336
39 | B3 | inactive: 0.00249

Biological target: SARS-CoV-2 NSP7
Assay: as above
Protocol: as §1

Row | Binder | yeast fitness gain
40 | B1 | inactive: -0.0103
41 | B2 | inactive: 0.00545
42 | B3 | inactive: 0.0563

Biological target: SARS-CoV-2 NSP9
Assay: as above
Protocol: as §1

Row | Binder | yeast fitness gain
43 | B1 | inactive: -0.0629
44 | B2 | inactive: 0.0425
45 | B3 | inactive: 0.0724

Biological target: SARS-CoV-2 ORF10
Assay: as above
Protocol: as §1

Row | Binder | yeast fitness gain
46 | B1 | inactive: 0.0175
47 | B2 | inactive: -0.00392
48 | B3 | inactive: -0.00618

Biological target: SARS-CoV-2 ORF3A
Assay: as above
Protocol: as §1

Row | Binder | yeast fitness gain
49 | B1 | inactive: -0.0523
50 | B2 | inactive: 0.0351
51 | B3 | inactive: -0.058

Biological target: SARS-CoV-2 ORF3B
Assay: as above
Protocol: as §1

Row | Binder | yeast fitness gain
52 | B1 | inactive: -0.00645
53 | B2 | inactive: 0.0401
54 | B3 | inactive: -0.0446

Biological target: SARS-CoV-2 ORF6
Assay: as above
Protocol: as §1

Row | Binder | yeast fitness gain
55 | B1 | inactive: 0.013
56 | B2 | inactive: 0.0379
57 | B3 | inactive: 0.0369

Biological target: SARS-CoV-2 ORF7A
Assay: as above
Protocol: as §1

Row | Binder | yeast fitness gain
58 | B1 | inactive: 0.0656
59 | B2 | inactive: 0.0321
60 | B3 | inactive: -0.00358

Biological target: SARS-CoV-2 ORF7B
Assay: as above
Protocol: as §1

Row | Binder | yeast fitness gain
61 | B1 | inactive: -0.0493
62 | B2 | inactive: -0.00614
63 | B3 | inactive: 0.00473

Biological target: SARS-CoV-2 ORF8
Assay: as above
Protocol: as §1

Row | Binder | yeast fitness gain
64 | B1 | inactive: -0.045
65 | B2 | inactive: 0.0455
66 | B3 | inactive: 0.0244

Biological target: SARS-CoV-2 ORF9B
Assay: as above
Protocol: as §1

Row | Binder | yeast fitness gain
67 | B1 | inactive: -0.0308
68 | B2 | inactive: -0.0189
69 | B3 | inactive: -0.015

Biological target: SARS-CoV-2 ORF9Bwu (the 73-codon ORF)
Assay: as above
Protocol: as §1

Row | Binder | yeast fitness gain
70 | B1 | inactive: 0.0439
71 | B2 | inactive: 0.0177
72 | B3 | inactive: 0.0706

Biological target: SARS-CoV-2 S
Assay: as above
Protocol: as §1

Row | Binder | yeast fitness gain
73 | B1 | inactive: -0.0433
74 | B2 | inactive: -0.0308
75 | B3 | inactive: 0.0299

Biological target: SARS-CoV-2 NSP15
Assay: as above
Protocol: as §1

Row | Binder | yeast fitness gain
76 | B2 | inactive: 0.0175
77 | B3 | inactive: -0.0305

Biological target: SARS-CoV-2 NSP8
Assay: as above
Protocol: as §1

Row | Binder | yeast fitness gain
78 | B2 | inactive: 0.0249
79 | B3 | inactive: 0.0652
